# Reference: patent US20230312724A1 (KADMON, published 2023)
# Like-named read-outs stand apart in the source and are kept apart here.
# T1: human B7-H4 expressed on cells (human, UniProt Q7Z7D3 25-282)
# T1 construct: Transfected CHO cells or tumor cell lines that carry hB7-H4; also called cellular hB7-H4
# T1 sequence: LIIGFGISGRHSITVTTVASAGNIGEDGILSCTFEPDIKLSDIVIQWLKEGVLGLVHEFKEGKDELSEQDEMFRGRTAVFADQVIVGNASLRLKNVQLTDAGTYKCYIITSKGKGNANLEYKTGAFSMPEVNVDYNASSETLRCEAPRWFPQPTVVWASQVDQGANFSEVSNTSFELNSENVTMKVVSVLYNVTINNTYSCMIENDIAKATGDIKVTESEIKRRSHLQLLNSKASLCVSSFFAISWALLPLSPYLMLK
# T2: mouse B7-H4-his (mouse, UniProt Q7TSP5 25-257)
# T2 construct: also called mB7-H4-his; mB7-H4-His; not shown: his tag
# T2 sequence: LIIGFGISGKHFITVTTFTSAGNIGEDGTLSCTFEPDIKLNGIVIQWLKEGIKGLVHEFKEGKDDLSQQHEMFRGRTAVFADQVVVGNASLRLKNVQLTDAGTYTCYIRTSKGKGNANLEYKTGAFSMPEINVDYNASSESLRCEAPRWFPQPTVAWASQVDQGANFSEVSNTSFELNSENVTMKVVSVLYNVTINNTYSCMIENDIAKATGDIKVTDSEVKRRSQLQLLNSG
# T3: human B7-H4-his (human, UniProt Q7Z7D3 25-259)
# T3 construct: also called hB7-H4-his; hB7-H4 his; not shown: his tag
# T3 sequence: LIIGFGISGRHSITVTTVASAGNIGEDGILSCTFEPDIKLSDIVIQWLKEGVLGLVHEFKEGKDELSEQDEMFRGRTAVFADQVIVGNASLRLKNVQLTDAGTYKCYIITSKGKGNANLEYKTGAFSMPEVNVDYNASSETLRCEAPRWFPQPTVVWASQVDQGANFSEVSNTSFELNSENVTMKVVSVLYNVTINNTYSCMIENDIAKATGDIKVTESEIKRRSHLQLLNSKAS
# B1: 39A11/57G8-IL15 (other)
# heavy 1: EVQLLESGGGLVQPGGSLRLSCAASGFTFSSYGMHWVRQAPGKGLEWVASISSSSGYIYYADSVKGRFTISRDNSKNTLYLQMNSLRAEDTAVYYCARASSGMDVWGQGTTVTVSS[letters of human IgG1 constant region with changes not shown]
# heavy 2: EVQLLESGGGLVQPGGSLRLSCAASGFTFSSYGMHWVRQAPGKGLEWVASISSSSGYIYYADSVKGRFTISRDNSKNTLYLQMNSLRAEDTAVYYCARASSGMDVWGQGTTVTVSSASTKGPSVFPLAPSSKSTSGGTAALGCLVKDYFPEPVTVSWNSGALTSGVHTFPAVLQSSGLYSLSSVVTVPSSSLGTQTYICNVNHKPSNTKVDKKV[letters of human IgG1 Fc with changes not shown]CPPPMSVEHADIWVKSYSLYSRERYICNSGFKRKAGTSSLTECVLNKATNVAHWTTPSLKCIRDPALVHQRPAPPSGGSGGGGSGGGSGGGGSLQ[letters of about 120 residues not shown]
# light: DIQMTQSPSSLSASVGDRVTITCRASQSIRSYLNWYQQKPGKAPKLLIYYASSLQSGVPSRFSGSGSGTDFTLTISSLQPEDFATYYCQQYYSTPLTFGQGTKVEIKRTVAAPSVFIFPPSDEQLKSGTASVVCLLNNFYPREAKVQWKVDNALQSGNSQESVTEQDSKDSTYSLSSTLTLSKADYEKHKVYACEVTHQGLSSPVTKSFNRGEC
# notes: Antibody-cytokine fusion: heterodimeric IgG1 (knobs-into-holes), HC2 carries C-terminal IL-15Ralpha sushi domain-linker-IL-15 N65S
# B2: (+) Ab1/IL15 (other)
# heavy 1: QLQLQESGPGLVKPSETLSLTCTVSGGSIKSGSYYWGWIRQPPGKGLEWIGNIYYSGSTYYNPSLRSRVTISVDTSKNQFSLKLSSVTAADTAVYYCAREGSYPNQFDPWGQGTLVTVSS[letters of human IgG1 constant region with changes not shown]
# heavy 2: QLQLQESGPGLVKPSETLSLTCTVSGGSIKSGSYYWGWIRQPPGKGLEWIGNIYYSGSTYYNPSLRSRVTISVDTSKNQFSLKLSSVTAADTAVYYCAREGSYPNQFDPWGQGTLVTVSSASTKGPSVFPLAPSSKSTSGGTAALGCLVKDYFPEPVTVSWNSGALTSGVHTFPAVLQSSGLYSLSSVVTVPSSSLGTQTYICNVNHKPSNTKVDKKV[letters of human IgG1 Fc with changes not shown]CPPPMSVEHADIWVKSYSLYSRERYICNSGFKRKAGTSSLTECVLNKATNVAHWTTPSLKCIRDPALVHQRPAPPSGGSGGGGSGGGSGGGGSLQ[letters of about 120 residues not shown]
# light: EIVMTQSPATLSVSPGERATLSCRASQSVSSNLAWYQQKPGQAPRLLIYGASTRATGIPARFSGSGSGTEFTLTISSLQSEDFAVYYCQQYHSFPFTFGGGTKVEIKRTVAAPSVFIFPPSDEQLKSGTASVVCLLNNFYPREAKVQWKVDNALQSGNSQESVTEQDSKDSTYSLSSTLTLSKADYEKHKVYACEVTHQGLSSPVTKSFNRGEC
# notes: Antibody-cytokine fusion: heterodimeric IgG1, HC1 with S354C/T366W, HC2 with Y349C/T366S/L368A/Y407V and C-terminal IL-15Ralpha sushi domain-linker-IL-15 N65S; also called (+) Ab/IL15; (+)Abl/IL15
# B3: 3F2/50A10-IL15 (other)
# heavy 1: QVQLVQSGAEVKKPGASVKVSCKASGYTFTAQYMYWVRQAPGQGLEWMGRINPTSGNTVYAQKLQGRVTMTRDTSTSTVYMELSSLRSEDTAVYYCARGINWFDPWGQGTLVTVSS[letters of human IgG1 constant region with changes not shown]
# heavy 2: QVQLVQSGAEVKKPGASVKVSCKASGYTFTAQYMYWVRQAPGQGLEWMGRINPTSGNTVYAQKLQGRVTMTRDTSTSTVYMELSSLRSEDTAVYYCARGINWFDPWGQGTLVTVSSASTKGPSVFPLAPSSKSTSGGTAALGCLVKDYFPEPVTVSWNSGALTSGVHTFPAVLQSSGLYSLSSVVTVPSSSLGTQTYICNVNHKPSNTKVDKKV[letters of human IgG1 Fc with changes not shown]CPPPMSVEHADIWVKSYSLYSRERYICNSGFKRKAGTSSLTECVLNKATNVAHWTTPSLKCIRDPALVHQRPAPPSGGSGGGGSGGGSGGGGSLQ[letters of about 120 residues not shown]
# light: DIQMTQSPSSLSASVGDRVTITCQASQDISNYINWYQQKPGKAPKLLIYAASRLQSGVPSRFSGSGSGTDFTLTISSLQPEDFATYYCQQSYRSPFTFGQGTKLEIKRTVAAPSVFIFPPSDEQLKSGTASVVCLLNNFYPREAKVQWKVDNALQSGNSQESVTEQDSKDSTYSLSSTLTLSKADYEKHKVYACEVTHQGLSSPVTKSFNRGEC
# notes: also called 50A10/IL115
# Tests used:
# [1] = target: T4, IgV domain of mouse B7-H4-Fc (mouse; human); assay: ELISA on coated IgV domain of mB7-H4
# T4 construct: also called mB7-H4 IgV domain
# [2] = target: T1, human B7-H4 expressed on cells; assay: flow cytometry, MX-1 cells
# Description: (§1) Cells were harvested, washed once, and then re-suspended to the concentration of 1×10⁶ cells/ml in ice cold FACS Buffer. 25 μl of cell suspension was added to each well of a 96-well round-bottom microliter plate. Serially diluted antibodies or fusion proteins were added to each well and incubated for 1 hour at 4° C. Cells were washed three times by centrifugation at 1500 rpm for 5 minutes, and then stained with secondary antibody (1:200 dilution) for 30 min at 4° C. in the dark. Cells were washed once, re-suspended in 100 μl PBS buffer and then analyzed using Guava Flow Cytometry EasyCyte system.
# mouse B7-H4-his [3] = target: T2, mouse B7-H4-his; assay: ELISA on coated mB7-H4-his
# Description: (§2) About 1-2 μg/ml of human or mouse B7-H4-Fc (or his-tagged) was immobilized on ELISA plates (Immuno 2HB, Thermo scientific, cat #3455) at 4° C. overnight. After blocking the plates with 3% PBS+milk, serial diluted antibodies were added to the blocked plates and incubated at RT for 1-1.5 h. After washing the plates with PBS-T (0.05%), horse radish peroxidase (HRP)-conjugated antibody targeting the hFab was added to the plate. Signals were developed by adding 3,3′,5,5′-Tetramethylbenzidine (TMB (followed 1N of H₂SO₄ to stop the reaction. The OD at 450 nm was read by ELISA plate reader (Infinite M1000 from TECAN). GraphPad from Prism was used to plot OD450 vs. antibody concentration curve and to calculate the EC50 values.
# human B7-H4-his [4] = target: T3, human B7-H4-his; assay: ELISA on coated hB7-H4-his
# Description: as §2
# [5] = target: T1, human B7-H4 expressed on cells; assay: flow cytometry on SK-BR-3 cells
# Description: as §1
# mouse B7-H4-Fc [6] = target: T5, mouse B7-H4-Fc (mouse; human); assay: ELISA on coated mouse B7-H4Fc
# T5 construct: also called mB7-H4-Fc; mB7-H4-hFc
# Description: as §2
# human B7-H4-Fc [7] = target: T6, human B7-H4-Fc (human); assay: SPR (Biacore)
# T6 construct: also called hB7-H4-Fc; hB7-H4 Fc
# Description: (§3) Surface plasmon resonance experiments were performed using a Biacore T200 instrument equipped with CM5 sensor chips. The system was equilibrated in running buffer HBS-EP pH 7.4. The ligands were immobilized using amine-coupling chemistry. The surfaces of flow cells one through four were activated for 5 min using an amine coupling kit at a flow rate of […]. The ligands (human B7-H4-Fc, human B7-H4-hism and mouse B7-H4-Fc; at a concentration of 5 μg/ml in 10 mM sodium acetate, pH 5.0) were immobilized at a density of 50-100 RU on flow cell 2, 3, 4 respectively. Flow cell 1 was left blank to serve as a reference surface. All flow cell surfaces were blocked with a 5 min injection of 1 M ethanolamine, pH 8.0. To collect kinetic binding data, the respective analyte (diluted in 1×HBS-EP buffer, pH 7.4) was injected over the four flow cells at concentrations of 100 nM to 0.1 nM at a flow rate of […] and at a temperature of 25° C. The protein complex was allowed to associate and dissociate for 180 seconds and 1000 or 1200 seconds, respectively. The surfaces were regenerated with a 30 second injection of 1.5 M NaCl/0.05 M NaOH. The data were fit to a simple 1:1 interaction model using the Langmuir fit option available within the Biaevaluaton software
# human B7-H4-his [8] = target: T3, human B7-H4-his; assay: SPR (Biacore)
# Description: as §3
# mouse B7-H4-Fc [9] = target: T5, mouse B7-H4-Fc; assay: SPR (Biacore)
# Description: as §3
# mouse B7-H4-his [10] = target: T2, mouse B7-H4-his; assay: ELISA on coated mouse B7-H4his
# Description: as §2
# [11] = target: T1, human B7-H4 expressed on cells; assay: flow cytometry on SK-BR-3 cells; remark: listed apart in the source
# Description: as §1
# [12] = target: T1, human B7-H4 expressed on cells; assay: flow cytometry, MDA-MB-468 cells
# Description: as §1
# human B7-H4-Fc [13] = target: T6, human B7-H4-Fc; assay: ELISA on coated human B7-H4Fc
# Description: as §2
# [14] = target: T7, IgV domain of human B7-H4-Fc (human); assay: ELISA on coated IgV domain of hB7-H4
# T7 construct: also called hB7-H4 IgV domain
# mouse B7-H4-Fc [15] = target: T5, mouse B7-H4-Fc; assay: ELISA on coated mB7-H4-Fc
# Description: as §2
# human B7-H4-his [16] = target: T3, human B7-H4-his; assay: ELISA on coated hB7-H4-his; remark: listed apart in the source
# Description: as §2
# human B7-H4-Fc [17] = target: T6, human B7-H4-Fc; assay: ELISA on coated hB7-H4-Fc
# Description: as §2
# mouse B7-H4-his [18] = target: T2, mouse B7-H4-his; assay: ELISA on coated mB7-H4-his; remark: listed apart in the source
# Description: as §2
# [19] = target: T4, IgV domain of mouse B7-H4-Fc; assay: ELISA on coated IgV domain of mB7-H4; remark: listed apart in the source
# Description: as §2
# [20] = target: T7, IgV domain of human B7-H4-Fc; assay: ELISA on coated IgV domain of hB7-H4; remark: listed apart in the source
# Description: as §2
# T5 sequence (chain, as listed by the source): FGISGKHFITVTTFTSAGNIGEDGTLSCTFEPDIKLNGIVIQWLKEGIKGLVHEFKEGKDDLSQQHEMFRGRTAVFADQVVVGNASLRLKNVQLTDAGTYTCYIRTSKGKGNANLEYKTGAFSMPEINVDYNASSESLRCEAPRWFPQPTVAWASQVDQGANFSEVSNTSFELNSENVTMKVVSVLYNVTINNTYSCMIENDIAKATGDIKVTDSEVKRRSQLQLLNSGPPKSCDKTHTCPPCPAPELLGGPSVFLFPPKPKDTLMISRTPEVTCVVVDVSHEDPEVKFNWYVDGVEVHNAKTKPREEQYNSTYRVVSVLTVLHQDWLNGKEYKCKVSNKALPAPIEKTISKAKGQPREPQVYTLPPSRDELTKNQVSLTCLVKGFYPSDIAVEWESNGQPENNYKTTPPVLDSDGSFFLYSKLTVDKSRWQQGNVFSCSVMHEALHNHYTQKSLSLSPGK
# T4 sequence (chain, as listed by the source): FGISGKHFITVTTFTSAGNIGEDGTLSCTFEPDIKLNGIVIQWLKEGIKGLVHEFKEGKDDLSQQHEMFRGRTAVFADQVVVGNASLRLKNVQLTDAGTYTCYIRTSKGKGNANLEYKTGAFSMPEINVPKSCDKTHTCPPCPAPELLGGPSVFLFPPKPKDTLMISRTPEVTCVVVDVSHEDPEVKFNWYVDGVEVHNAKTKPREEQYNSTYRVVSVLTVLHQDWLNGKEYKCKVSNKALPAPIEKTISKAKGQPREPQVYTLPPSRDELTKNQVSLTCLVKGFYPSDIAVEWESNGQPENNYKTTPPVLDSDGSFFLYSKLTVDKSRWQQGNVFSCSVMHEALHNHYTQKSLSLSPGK
# T6 sequence (chain, as listed by the source): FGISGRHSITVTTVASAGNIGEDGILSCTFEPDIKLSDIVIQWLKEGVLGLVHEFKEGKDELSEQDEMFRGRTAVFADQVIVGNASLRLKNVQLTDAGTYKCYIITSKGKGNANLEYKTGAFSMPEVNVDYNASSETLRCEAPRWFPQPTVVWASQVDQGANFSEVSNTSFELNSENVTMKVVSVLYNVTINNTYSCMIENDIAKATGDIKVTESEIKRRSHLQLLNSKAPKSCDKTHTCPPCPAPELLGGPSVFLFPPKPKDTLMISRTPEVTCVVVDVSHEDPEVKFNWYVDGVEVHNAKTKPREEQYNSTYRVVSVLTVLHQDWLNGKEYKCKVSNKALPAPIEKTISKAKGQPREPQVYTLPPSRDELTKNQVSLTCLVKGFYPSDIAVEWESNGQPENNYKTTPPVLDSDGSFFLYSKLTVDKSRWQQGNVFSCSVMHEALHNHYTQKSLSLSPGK
# T7 sequence (chain, as listed by the source): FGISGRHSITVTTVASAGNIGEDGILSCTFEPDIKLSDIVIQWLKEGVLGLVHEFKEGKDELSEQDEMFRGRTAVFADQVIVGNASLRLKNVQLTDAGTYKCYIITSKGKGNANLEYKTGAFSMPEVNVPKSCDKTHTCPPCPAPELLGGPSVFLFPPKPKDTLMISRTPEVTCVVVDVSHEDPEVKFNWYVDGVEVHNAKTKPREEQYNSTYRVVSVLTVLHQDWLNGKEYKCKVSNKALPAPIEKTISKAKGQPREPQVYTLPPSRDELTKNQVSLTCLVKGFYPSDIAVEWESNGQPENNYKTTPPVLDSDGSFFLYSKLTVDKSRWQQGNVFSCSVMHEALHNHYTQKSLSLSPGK
binder,measurement,setting,value
B1,EC50 (read off the curve),[1],~0.1 nM
same,EC50,[2],24.8 nM
same,EC50 (read off the curve),mouse B7-H4-his [3],~0.2 nM
same,EC50 (read off the curve),human B7-H4-his [4],~0.2 nM
same,EC50 (read off the curve),[5],~2 nM
same,EC50 (read off the curve),mouse B7-H4-Fc [6],~0.2 nM
same,Kd,human B7-H4-Fc [7],0.219 nM
same,Kd,human B7-H4-his [8],0.0454 nM
same,Kd,mouse B7-H4-Fc [9],0.107 nM
same,EC50 (read off the curve),mouse B7-H4-his [10],~0.3 nM
same,EC50 (read off the curve),[11],~2 nM
same,EC50,[12],29.6 nM
same,EC50 (read off the curve),human B7-H4-Fc [13],~0.2 nM
same,EC50 (read off the curve),[14],~0.2 nM
B2,EC50 (read off the curve),[1],~0.4 nM
same,EC50 (read off the curve),mouse B7-H4-his [3],~0.3 nM
same,EC50 (read off the curve),human B7-H4-his [4],~0.2 nM
same,EC50 (read off the curve),mouse B7-H4-Fc [15],~0.2 nM
same,Kd,human B7-H4-Fc [7],0.647 nM
same,Kd,human B7-H4-his [8],0.18 nM
same,Kd,mouse B7-H4-Fc [9],0.761 nM
same,EC50 (read off the curve),human B7-H4-his [16],~0.4 nM
same,EC50 (read off the curve),human B7-H4-Fc [17],~0.2 nM
same,EC50 (read off the curve),mouse B7-H4-his [18],~0.4 nM
same,EC50 (read off the curve),[14],~0.3 nM
B3,EC50,[2],0.162 nM
same,binding result,[19],no binding (tested: 10 nM)
same,binding result,mouse B7-H4-Fc [15],no binding (tested: 10 nM)
same,Kd,human B7-H4-Fc [7],0.101 nM
same,Kd,human B7-H4-his [8],0.0259 nM
same,EC50 (read off the curve),human B7-H4-his [16],~0.1 nM
same,EC50 (read off the curve),human B7-H4-Fc [17],~0.09 nM
same,EC50,[12],0.398 nM
same,EC50 (read off the curve),[20],~0.1 nM
same,binding result,mouse B7-H4-his [18],no binding (tested: 10 nM)
same,EC50 (read off the curve),human B7-H4-Fc [13],~0.2 nM
